Test results reported in the supplement of paper PMC9513381.

Assays:
[1] = biological target: SARS-CoV-2 Wuhan-Hu-1 spike pseudovirus; experiment: pseudovirus neutralization IC50; higher = weaker neutralization
Protocol: (§1)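 Single-round luciferase reporter pseudovirus mixed with antibody dilutions and put on 293T-ACE2 cells for 48 h; signal relative to no-antibody wells, four-parameter fit.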

[2] = biological target: SARS-CoV-2 Wuhan-Hu-1 spike pseudovirus; experiment: pseudovirus neutralization IC90; higher = weaker neutralization
Protocol: as §1

[3] = biological target: SARS-CoV-2 Delta (B.1.617.2) spike RBD; experiment: ELISA binding EC50; higher = weaker binding; ELISA of recombinant human antibody on coated antigen, from 10 µg/ml in fourfold dilutions; four-parameter fit.
[4] = biological target: SARS-CoV-2 Omicron BA.1 spike protein; experiment: as above
[5] = biological target: SARS-CoV-2 Wuhan-Hu-1 spike receptor-binding domain; experiment: as above

B1: B2057 (protein)
chain 1: EVQLVESGGGLAKPGGSLRLSCAASGFSFSDAWMNWVRQGPGKGLEWVGRIKTKIDGGTIDYAASVKGRFTISRDDSKNTLYLQMSRLKTDDTAVYYCSTDEVSSGYDFPMDVWGQGTTVTVSS
chain 2: DIQMTQSPSTLSASVGDRVTITCRASQSVSVWLAWYQQKPGKAPNLLIYKASNLQSGVPSRFSGSGSGTEFTLTISSLQPDDFATYYCLQYNTLWTFGQGTKVEIK
- pseudovirus neutralization IC50 [1]: 0.0227 µg/mL
- pseudovirus neutralization IC90 [2]: 0.476 µg/mL
- ELISA binding EC50 [3]: 0.00667 µg/mL
- ELISA binding EC50 [4]: 0.00732 µg/mL
- ELISA binding EC50 [5]: 0.00199 µg/mL

B2: B2005 (protein)
chain 1: EVQLVESGGGLVQPGRSLRLSCAAGGFTFDDYAMHWVRQGPGKGLEWVSGIAWNSGTLGYAASVQGRFIISRDNAKKSVYLHMNSLRTEDTAFYFCVKDRTNGDPQGDAFDMWGQGTMVTVSS
chain 2: SYELTQPPSVSGAPGQTARITCGGNNIGSKSVHWYQQKPGQAPVLVVYDDNDRPSGIPERFSGSNSGNRATLTISRVEAEDEADYYCQVWDSSSEHVLFGGGTKLTVL
- pseudovirus neutralization IC50 [1]: 0.0135 µg/mL
- pseudovirus neutralization IC90 [2]: 0.23 µg/mL
- ELISA binding EC50 [3]: > 1 µg/mL
- ELISA binding EC50 [4]: 0.0329 µg/mL
- ELISA binding EC50 [5]: 0.00303 µg/mL

B3: B2062 (protein)
chain 1: QVQLQESGPGLVKPSETLSVTCAVSGYSISSSYYWGWIRQSPGRGLEWIGSIYHSGTTYYNPSVKSRLTISVDTSTNQFSLTLRSVTAADTAMYYCASNSGQVVIGAFDIWGRGTMVTVSS
chain 2: DIQMTQSPSSLSASVGDRVTVTCRASQSIDSYLNWYQQKPGKAPKVLIYAASTLQSGVPSRFSGSGSGTEFTLTISSLQPEDFATYYCQQTYSTPSYTFGQGTKLEIK
- ELISA binding EC50 [3]: > 1 µg/mL
- ELISA binding EC50 [4]: > 1 µg/mL
- ELISA binding EC50 [5]: > 1 µg/mL

B4: B2114 (protein)
chain 1: EVQLVESGGGLVQPGGSLRLSCAASGFIVSDSYMTWVRQAPGKGLEWVSLIHSGGSTYYADSVKGRFTITRHYSTNNLYLQMNSLRVEDTAVYYCARDTAASSGYYYNALDVWGQGTTVTVSS
chain 2: DIQMTQSPSTLSASVGDRVTITCRASQSISSWLAWYQQKPGKAPKLLISEASILEGGVPSRFRGSGSGTEFTLTINSLQPDDFAIYYCQQYRSYSYTFGQGTKLEIK
- ELISA binding EC50 [3]: > 1 µg/mL
- ELISA binding EC50 [4]: > 1 µg/mL
- ELISA binding EC50 [5]: > 1 µg/mL

B5: B2115 (protein)
chain 1: QVQLVQSGTEVKKPGASVKVSCKVSGYTLTELSIHWVRQAPGKGLEWMGGFDPEDGETIFAQKFQGRVTMTEDTSTDTAYMDLSSLRSEDTAIYYCATNLRGHLLEPAAKGNSRAEYFQHWGQGTLVTVSS
chain 2: EIVLTQSPGTLSLSPGERAALSCRASQSVTRSYLAWYQQKPGQAPRLLIFDASSRATGIPDRFSGSASGTDFTLTISRLEPEDFAVYYCQLYGTSSTFGQGTKVEIK
- ELISA binding EC50 [3]: > 1 µg/mL
- ELISA binding EC50 [4]: > 1 µg/mL
- ELISA binding EC50 [5]: > 1 µg/mL

B6: B2007 (protein)
chain 1: EVQLVESGGDLVQPGESLRLSCSDSGLTFRTHGFYWVRQAPGKRPEYISGISNNGDATYYADSVKGRFTVSRDNSKNTLFLQMNSLSVDDTAVYYCVKGRVDYWGQGTLVTVSS
chain 2: DIQMTQSPSSLSASVGDRVTITCQASQDISNSLNWYQQKPGRAPKLLIYDASHLQTGVPSRFSGSGSGTNFTFTISGLQPEDIATYYCQEYYDSITFGQGTRLEIK
- ELISA binding EC50 [3]: > 1 µg/mL
- ELISA binding EC50 [4]: > 1 µg/mL
- ELISA binding EC50 [5]: > 1 µg/mL

B7: B2010 (protein)
chain 1: QLVQSGPEIKKPGTSVKVSCKASGFTFSNSAVQWVRQARGQHLEWIGWIVVGSGDPNYAQKFQERVTLTRDMSTGTAYMELSSLRSEDTAFYYCATNNCSRTICSDGFDIWGQGTMVTVSS
chain 2: DIQLTQSPSSLSASVGDRVTISCRASQTINNYLNWYQQKPGKAPKLLIYAASTLHRGVPSRFSGSGSGTDFTLTISSLQPEDFATYYCQQSYSSPPLTFGGGTKVEIK
- ELISA binding EC50 [3]: > 1 µg/mL
- ELISA binding EC50 [4]: > 1 µg/mL
- ELISA binding EC50 [5]: > 1 µg/mL

B8: B2045 (protein)
chain 1: EVQLVESGGGLIRPGGSLRLSCAASGFSVSNNYMSWVRQAPGKGLEWVSVIYSGGTTYYADSVKGRFNISRDNSKNTVYLQMNSLRAEDTAVYYCAREGDVEGYYDFWSGYSRDRYYFDYWGQGALVTVSS
chain 2: DIQLTQSPSSLSASVGDRVTITCRASQSVGRHLSWYQQKSGKAPKLLIYDASTLQSGVPSRFSGSGSGTDFSLTISNLRPEDFATYYCQQSYETPPWTFGQGTKVEIK
- ELISA binding EC50 [3]: > 1 µg/mL
- ELISA binding EC50 [4]: > 1 µg/mL
- ELISA binding EC50 [5]: > 1 µg/mL

Recombinant human monoclonal antibodies (heavy:light variable regions). ELISA EC50 on the named antigen, from 10 µg/ml down; IC50 / IC90 against spike pseudovirus on 293T-ACE2 cells, 48 h; lower = stronger. Calls: IC50 above 1,000 ng/ml = non-neutralizing; EC50 above 1,000 ng/ml = non-binder. The source prints 1000 for neutralization that was not reached; it is given as >1000 ng/ml. Only binders of the Wuhan-Hu-1 domain have neutralization values.
